Laboratory results taken from US11459397B2, “Self-crosslinking antibodies” (Meditope Biosciences, Inc., priority 2016, dated 2022).
Blank lines part the entries; values can stand above or below the molecule they belong to.

Experiments:
[1] = test system: stoichiometric complex of EGFRdIII and cetuximab Fab; assay: size exclusion chromatography of meditope-Fc with cetuximab Fab and EGFRdIII; format: binding
sHER2 = sHER2 (Homo sapiens, UniProt P04626); assay: size exclusion chromatography co-elution of meditope-enabled trastuzumab, sHER2 and meditope-Fc; format: binding; details: meditope-enabled trastuzumab
[2] = test system: HL-60 cells expressing CD33; assay: pHrodo-labeled antibody internalization, confocal fluorescence microscopy; format: cell-based; details: 15 minutes at 37° C., HL-60 cells expressing CD33, confocal microscope
[3] = test system: HL-60 cells expressing CD33; assay: pHrodo-labeled antibody internalization, flow cytometric analysis; format: cell-based; details: 15 minutes at 37° C.
[4] = antibody self-crosslinking by size-exclusion chromatography; format: physicochemical; details: histidine 20 mM pH6, sucrose 5%
[5] = modulation of self-crosslinking by free meditope, silver-stained native gel; format: physicochemical; details: 100 nM antibody; for multimer formation in native gel with excess of free meditope: 1 μM cQFD free meditope, 30 minutes
[6] = concentration dependence of self-crosslinking, silver-stained native gel; format: physicochemical; details: 1 nM and 100 nM samples in PBS

- co-elution by size exclusion chromatography (sHER2): co-eluted
B1: meditope-Fc construct: meditope fused to the N-terminus of an Fc domain via a poly-glycine-serine linker; SEQ ID NO: 57 (protein)
chain: GCQFDLSTRRLRCGGSRSGGTSGGGSVPGSGSSGSTSGSGKSSEGSGQ[sequence of human IgG1 Fc and a few adjoining residues omitted]
- complex formation by size exclusion chromatography (SEC) [1]: form a complex

B2: SnAP-body variant 1: meditope-enabled gemtuzumab light chain (SEQ ID NO: 254); IgG1 heavy chain fused to a meditope via a linker (SEQ ID NO: 255) (antibody)
heavy: CQFDLSTRRLKCGGGAREEAAKAAEEAKKAAEEAAKAAQVQLQQSGAELAKPGASVKMSCKASGYTFTSYRMHWVKQSPGQGLEWIGYINPSTGYTEYNQKFKDKATLTADKSSSTAYMQLSSLTFEDSAIYYCARGGGVFDYWGQGTTLTVSS[sequence of human IgG1 constant region omitted]
light: QIVLTQSPAIMSASPGEKVTITCSASSSISYMHWFQQRTNGSPRLWIYTTSNLASGVPARFSGSGSGTSYSLTISRMEAEDEADYYCHQRSTYPLTFGAGTKLELKRTVAAPSVFIFPPSDEQLKSGTASVVCLLNNFYPREAKVQWKVDNALQSGNSQESVTEQDSKDSTYSLSSTLTLSKADYEKHKVYACEVTHQGLSSPVTKSFNRGEC
modifications: Anti-CD33 SnAP-body variant 1 heavy chain; Anti-CD33 Light Chain
- total staining (fluorescence per cell) normalized to the control [2]: more than 2.5 times
- flow cytometry histogram of pHrodo fluorescence compared to the control [3]: additional peaks with increased intensity as compared to the control
- oligomeric state by size-exclusion chromatography [4]: form dimers and multimers
- multimer formation in native gel in the absence of free meditope [5]: form dimers, trimers, and tetramers
- multimer formation in native gel with excess of free meditope [5]: little to no detectable multimers

B3: gemtuzumab control antibody: meditope-enabled gemtuzumab IgG1 heavy chain (SEQ ID NO: 257) without a meditope or a linker; light chain SEQ ID NO: 254 (antibody)
heavy: QVQLQQSGAELAKPGASVKMSCKASGYTFTSYRMHWVKQSPGQGLEWIGYINPSTGYTEYNQKFKDKATLTADKSSSTAYMQLSSLTFEDSAIYYCARGGGVFDYWGQGTTLTVSS[sequence of human IgG1 constant region omitted]
light: QIVLTQSPAIMSASPGEKVTITCSASSSISYMHWFQQRTNGSPRLWIYTTSNLASGVPARFSGSGSGTSYSLTISRMEAEDEADYYCHQRSTYPLTFGAGTKLELKRTVAAPSVFIFPPSDEQLKSGTASVVCLLNNFYPREAKVQWKVDNALQSGNSQESVTEQDSKDSTYSLSSTLTLSKADYEKHKVYACEVTHQGLSSPVTKSFNRGEC
modifications: Control anti-CD33 heavy chain; Anti-CD33 Light Chain
- oligomeric state by size-exclusion chromatography [4]: eluted as a single monomeric peak
- multimer formation in native gel [6]: only formed monomers, and did not self-crosslink

B4: SnAP-body variant 3: meditope-enabled gemtuzumab light chain (SEQ ID NO: 254); IgG1 heavy chain fused to a meditope via a linker (SEQ ID NO: 279) (antibody)
heavy: CQFDLSTRRLKCGGGSKDEIDSAVKQVQLQQSGAELAKPGASVKMSCKASGYTFTSYRMHWVKQSPGQGLEWIGYINPSTGYTEYNQKFKDKATLTADKSSSTAYMQLSSLTFEDSAIYYCARGGGVFDYWGQGTTLTVSS[sequence of human IgG1 constant region omitted]
light: QIVLTQSPAIMSASPGEKVTITCSASSSISYMHWFQQRTNGSPRLWIYTTSNLASGVPARFSGSGSGTSYSLTISRMEAEDEADYYCHQRSTYPLTFGAGTKLELKRTVAAPSVFIFPPSDEQLKSGTASVVCLLNNFYPREAKVQWKVDNALQSGNSQESVTEQDSKDSTYSLSSTLTLSKADYEKHKVYACEVTHQGLSSPVTKSFNRGEC
modifications: cQFD meditope, variant 3 linker, fused to the heavy chain of meditope enabled gemtuzumab; Anti-CD33 Light Chain
- oligomeric state by size-exclusion chromatography [4]: form dimers and multimers
- multimer formation in native gel in the absence of free meditope [5]: form dimers, trimers, and tetramers
- multimer formation in native gel with excess of free meditope [5]: little to no detectable multimers

B5: SnAP-body variant 2: meditope-enabled gemtuzumab light chain (SEQ ID NO: 254); IgG1 heavy chain fused to a meditope via a linker (SEQ ID NO: 256) (antibody)
heavy: CQFDLSTRRLKCGGGAAARAAAARAAAARAQVQLQQSGAELAKPGASVKMSCKASGYTFTSYRMHWVKQSPGQGLEWIGYINPSTGYTEYNQKFKDKATLTADKSSSTAYMQLSSLTFEDSAIYYCARGGGVFDYWGQGTTLTVSS[sequence of human IgG1 constant region omitted]
light: QIVLTQSPAIMSASPGEKVTITCSASSSISYMHWFQQRTNGSPRLWIYTTSNLASGVPARFSGSGSGTSYSLTISRMEAEDEADYYCHQRSTYPLTFGAGTKLELKRTVAAPSVFIFPPSDEQLKSGTASVVCLLNNFYPREAKVQWKVDNALQSGNSQESVTEQDSKDSTYSLSSTLTLSKADYEKHKVYACEVTHQGLSSPVTKSFNRGEC
modifications: Anti-CD33 SnAP-body variant 2 heavy chain; Anti-CD33 Light Chain
- total staining (fluorescence per cell) normalized to the control [2]: more than 2.0 times
- flow cytometry histogram of pHrodo fluorescence compared to the control [3]: additional peaks with increased intensity as compared to the control
- oligomeric state by size-exclusion chromatography [4]: form dimers and multimers
- multimer formation in native gel in the absence of free meditope [5]: form dimers, trimers, and tetramers
- multimer formation in native gel with excess of free meditope [5]: little to no detectable multimers
